Counter-ions that a name gives are not always drawn. This is one part of the list. Most values come without repeats; read them as rough.
System: Beas-2B AQP5-HiBiT reporter cells
Assay: AQP5-HiBiT luminescence relative to vehicle (ratio to vehicle); higher = higher AQP5-HiBiT protein abundance
Conditions: 10 µM; 18 h
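Note: monoclonal Beas-2B line stably carrying CMV promoter-driven AQP5-HiBiT, 5,000 cells per well in 384-well plates, lytic HiBiT plus LgBiT NanoLuc luminescence, FDA-approved drug library screen.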

SMILES	AQP5-HiBiT luminescence
CC1=C(C(=O)O)N2C(=O)[C@@H](NC(=O)[C@H](N)c3ccc(O)cc3)[C@H]2SC1 [Cefadroxil]	0.75
CC(=O)Oc1cc2c(s1)CCN(C(C(=O)C1CC1)c1ccccc1F)C2 (stereo not drawn) [Prasugrel]	0.986
CCCCCNC(=N)N/N=C/c1c[nH]c2ccc(OC)cc12 [Tegaserod maleate]	1.36
Nc1nc2[nH]cc(CCc3ccc(C(=O)N[C@@H](CCC(=O)O)C(=O)O)cc3)c2c(=O)[nH]1 [Pemetrexed Disodium Hydrate]	1.6
CN1CCN2c3ncccc3Cc3ccccc3C2C1 (stereo not drawn) [Mirtazapine]	0.96
N=C(NCCCCCCNC(=N)NC(=N)Nc1ccc(Cl)cc1)NC(=N)Nc1ccc(Cl)cc1 [Chlorhexidine]	0.406
CCCCC(=O)O[C@H]1CC[C@H]2[C@@H]3CCc4cc(O)ccc4[C@H]3CC[C@]12C [Estradiol valerate]	0.92
CCC(=O)O[C@]1(C(=O)CCl)[C@@H](C)C[C@H]2[C@@H]3CCC4=CC(=O)C=C[C@]4(C)[C@@]3(F)[C@@H](O)C[C@@]21C [Clobetasol propionate]	0.697
NC(=O)N1c2ccccc2CC(=O)c2ccccc21 [Oxcarbazepine]	1.22
Nc1ncn([C@H]2C[C@H](O)[C@@H](CO)O2)c(=O)n1 [Dacogen]	0.981
O=c1[nH]cnc2c1ncn2[C@H]1CC[C@@H](CO)O1 [Didanosine]	0.56
O=C1OCCN1/N=C/c1ccc([N+](=O)[O-])o1 [Furazolidone]	1.13
Clc1ccc2nsnc2c1NC1=NCCN1 [Tizanidine hydrochloride]	0.639
S=c1[nH]cnc2nc[nH]c12 [Mercaptopurine (6-MP)]	1.06
Nc1nc2c(ncn2COC(CO)CO)c(=O)[nH]1 [Ganciclovir]	0.999
O=P(O)(O)C(O)(Cn1ccnc1)P(=O)(O)O [Zoledronic Acid]	0.859
CN(C)C/C=C/C(=O)Nc1cc2c(Nc3ccc(F)c(Cl)c3)ncnc2cc1O[C@H]1CCOC1 [Afatinib (BIBW2992)]	2.16

SMILES	AQP5-HiBiT luminescence
O=C(O)C[C@H](O)C[C@H](O)/C=C/c1c(C2CC2)nc2ccccc2c1-c1ccc(F)cc1 [Pitavastatin calcium]	0.432
NCc1ccc(S(N)(=O)=O)cc1 [Mafenide hydrochloride]	0.876
C=C1c2c(Cl)ccc(O)c2C(O)=C2C(=O)[C@]3(O)C(O)=C(C(N)=O)C(=O)[C@@H](N(C)C)[C@@H]3[C@@H](O)[C@H]12.O=C(O)c1cc(S(=O)(=O)O)ccc1O [Meclocycline sulfosalicylate salt]	0.531
CC(C)NCC(O)COc1cccc2[nH]ccc12 (stereo not drawn) [Pindolol]	0.693
C[C@H]1c2cccc(O)c2C(=O)C2=C(O)[C@]3(O)C(=O)C(C(N)=O)=C(O)[C@@H](N(C)C)[C@@H]3[C@@H](O)[C@@H]21 [Doxycycline hyclate]	0.837
CC[C@]1(O)C[C@@H]2CN(CCc3c([nH]c4ccccc34)[C@@](C(=O)OC)(c3cc4c(cc3OC)N(C)[C@H]3[C@@](O)(C(=O)OC)[C@H](OC(C)=O)[C@]5(CC)C=CCN6CC[C@]43[C@@H]65)C2)C1 [Vinblastine sulfate]	2.71
Cc1cnc(NC(=O)C2=C(O)c3ccccc3S(=O)(=O)N2C)s1 [Meloxicam]	1.21
C#CCN[C@@H]1CCc2ccccc21 [Rasagiline]	1.11
CCCNS(=O)(=O)Nc1ncnc(OCCOc2ncc(Br)cn2)c1-c1ccc(Br)cc1 [Macitentan]	0.669
CC(c1cc2ccccc2s1)N(O)C(N)=O (stereo not drawn) [Zileuton]	1.16
CN1CCCC(n2nc(Cc3ccc(Cl)cc3)c3ccccc3c2=O)CC1 (stereo not drawn) [Azelastine]	1.37
CN1CCC[C@@H]1CCO[C@](C)(c1ccccc1)c1ccc(Cl)cc1 [Clemastine fumarate]	1.25
COc1cc(NC(C)CCCN)c2ncccc2c1 (stereo not drawn) [Primaquine diphosphate]	0.908
O=P(O)(O)C(O)(Cc1cccnc1)P(=O)(O)O [Risedronate Sodium]	1.22
COc1ccc(C(Cl)=C(c2ccc(OC)cc2)c2ccc(OC)cc2)cc1 [Chlorotrianisene]	0.705
OCCN1CCN(CCCN2c3ccccc3Sc3ccc(C(F)(F)F)cc32)CC1 [Fluphenazine hydrochloride]	1.32

Source: the supplement of paper PMC8821664
